# Source: PubChem BioAssay AID1240 (Sanford-Burnham Center for Chemical Genomics, 2008)
# Where “and” joins values, the source holds several entries; their conditions need not be identical. Identical values can stand only once. About 800 (1.6%) of roughly 50,000 compounds showed an effect of 50% or more. Some of the results follow.
# Target: Bcl-2-like protein 10 (Homo sapiens) (UniProt Q9HD36)
# Assay: TR3 peptide-Bcl-B binding displacers, biochemical primary FP assay, phenotype converters (AID 1240);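 also: 0% = Bcl-B with tracer peptide and DMSO and 100% = tracer peptide lacking Bcl-B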
# Conditions: GST-Bcl-B / FITC-TR3 peptide fluorescence polarization; stronger effect = higher value; compound at 3.75 mg/L
# Chain of UniProt Q9HD36 (Q9HD36 whole entry, looked up): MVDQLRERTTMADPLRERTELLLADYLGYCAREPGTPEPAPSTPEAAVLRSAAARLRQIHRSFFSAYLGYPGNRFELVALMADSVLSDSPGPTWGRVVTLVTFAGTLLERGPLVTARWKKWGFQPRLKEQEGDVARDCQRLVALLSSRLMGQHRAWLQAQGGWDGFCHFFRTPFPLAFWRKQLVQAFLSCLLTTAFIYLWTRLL
row,Compound,displacement
1,O=C(Nc1cccc(NC(=O)c2ccccc2Br)c1)c1cccc(Br)c1,-34.2%
2,CCOc1ccc(C(O)c2nccn2CC)cc1 (centres undefined),-1.8%
3,Cc1cccc(C(=O)Nc2sc3c(c2C(=O)N2CCCCC2)CCCCC3)c1,-7.4%
4,COc1cc(C2NC(=S)NC(C)=C2C(=O)Nc2ccccc2)ccc1O (centres undefined),-9.6%
5,CC(=O)Nc1ccc(C(=O)N2CCC(Cc3ccccc3)CC2)cc1,-1.3%
6,COc1ccc(NC(=O)CCN2C(=O)/C(=C/c3cccs3)SC2=S)cc1,82.8%
7,Cc1ccc(C(=O)Oc2ccc(Br)cc2C(=S)N2CCOCC2)cc1,8.1%
8,Cc1ccc(N2CCN(/N=C\c3ccccc3F)CC2)cc1,3.9%
9,COc1ccc(C(=O)N/N=C/c2cc(OC)c(O)c([N+](=O)[O-])c2)cc1OC,3.9%
10,CCOC(=O)c1c(NC(=O)COc2cc(Cl)ccc2Cl)sc(C)c1C,-8%
11,Cc1cc(Cl)ccc1OCC(=O)Nc1ccc(Cl)cn1,22%
12,Cc1ccc(C)c(S(=O)(=O)/N=C2\C=CC(=O)c3ccccc32)c1,12.4%
13,O=C(CN1CCN(CCN2C(=O)c3cccc4cccc(c34)C2=O)CC1)c1ccc(F)cc1,5.3% and 0%
14,O=C(CSc1nc2ccc(N3C(=O)c4ccccc4C3=O)cc2s1)NCc1ccco1,-27.7%
15,CCOc1ccc(C(=O)Nc2ccc3oc(-c4cccc(Cl)c4Cl)nc3c2)cc1[N+](=O)[O-],-9.7%
16,NCC1NCCc2ccccc21 (centres undefined),-4%
17,Cc1cc(/C=N/Nc2ccc([N+](=O)[O-])cn2)c(C)n1-c1ccc(F)cc1,-12%
18,CC1(C(=O)O)CCC(C(=O)Nc2ccccc2O)C1(C)C (centres undefined),-15.5%
19,COc1ccc(/C=C/C(=O)Nc2ccc(C(C)=O)cc2)cc1,4.5%
20,CCCCCCOc1ccc(N2C(=O)CC(N3CCC(C)CC3)C2=O)cc1 (centres undefined),-8.9%
21,COc1ccc(C2NC(=S)NC(C)=C2C(=O)Nc2ccccc2Cl)cc1 (centres undefined),-15.9%
22,CCCc1[nH]n(-c2ccc([N+](=O)[O-])cc2)c(=O)c1C=NCCc1ccc(OC)c(OC)c1,-8%

row,Compound,displacement
1,CCCOc1ccc(N2C(=O)CC(NCc3ccc(C(=O)O)cc3)C2=O)cc1 (centres undefined),-24%
2,O=C(NNC(=O)c1ccc(S(=O)(=O)c2ccccc2)cc1)c1ccc(Br)cc1,-6.6%
3,O=C(Nc1sc2c(c1C(=O)Nc1cccc3ccccc13)CCC2)c1ccccc1Br,-8%
4,Cc1ccc(OCc2nc(-c3ccncc3)no2)c(Br)c1,3.4%
5,O=S(=O)(Cc1ccccc1)N1CCN(C/C=C/c2ccccc2)CC1,10.4%
6,CC1(C)CC(=O)C2=C(C1)Nc1ccccc1NC2c1coc2c(Cl)cc(Cl)cc2c1=O (centres undefined),5.4%
7,Fc1ccccc1-c1nc(-c2ccc(Br)cc2)no1,4.3%
8,O=C(N/N=C\c1cc(Br)c(Br)o1)c1cncc(Br)c1,1.8%
9,CCc1ccc(-c2nn(-c3cc(N4CCN(C)CC4)ccc3[N+](=O)[O-])c(=O)c3ccccc23)cc1,7.8%
10,COc1ccc(/C(N)=N/OC(=O)COc2ccccc2)cc1OC,7.1%
11,COc1ccc(CCN(C(C)=O)C2CC(=O)N(c3ccccc3)C2=O)cc1 (centres undefined),-6.8%
12,NC(=O)C1CCN(C2CC(=O)N(c3ccccc3)C2=O)CC1 (centres undefined),-1%
13,COc1ccc(NC(=O)c2ccc(C(=O)O)cc2C(=O)O)c(OC)c1,12.6%
14,O=C(c1ccc(N2CCN(C(=O)c3ccc(F)cc3F)CC2)cc1)c1cccc(F)c1,72.1%
15,CCOc1ccc(S(=O)(=O)N(CC(=O)N(CC)CC)c2ccc(C)cc2)cc1,9.5%
16,O=C(OCCC1(c2ccccc2)C(=O)c2ccccc2C1=O)c1ccc(Cl)cc1,10.9%
17,CS(=O)(=O)N1CCN(C(=O)c2ccccc2F)CC1,7.3%
18,O=C1Nc2ccccc2C12NN=C(c1ccccc1O)S2 (centres undefined),-6.1%
19,CCOC(=O)C1=C(C)NC(=S)NC1c1ccc(OCc2ccccc2)cc1 (centres undefined),5.4%
20,Cc1cc([N+](=O)[O-])ccc1NC(=S)NC(=O)c1ccc(Cl)cc1,-4.6%
21,Cn1c(-n2c(CCCN3C(=O)c4ccccc4C3=O)nc3ccccc3c2=O)nc2ccccc21,35.4%
22,Clc1ccc(N2CCN(N=Cc3c(Cl)cccc3Cl)CC2)cc1,8.5%

row,Compound,displacement
1,CCCN/N=C/c1c(C)[nH]n(-c2ccccc2)c1=O,-10.5%
2,CCc1ccc(-c2cc(C(=O)N3CCN(c4ccc(F)cc4)CC3)c3ccccc3n2)cc1,-7.6%
3,CC1CCN(CCOCCOc2ccc(Br)cc2)CC1,4.2%
4,CCCc1ccc(C(=O)O/N=C(\N)c2ccccn2)cc1,11.6%
5,Cc1no[n+]([O-])c1COc1cccc(/C=C2\N=C(c3ccccc3)OC2=O)c1,13.2%
6,COc1cc(N/N=C/c2cc(Br)ccc2O)ncn1,-14.2%
7,C/C(=N\N=C1\NC(=O)C(CC(=O)Nc2ccccc2)S1)c1ccc([N+](=O)[O-])cc1 (centres undefined),12.8%
8,CCCC(C)NC(=O)Cc1ccccc1[N+](=O)[O-] (centres undefined),11.9%
9,COC(=O)c1cc(-c2ccc(Br)cc2)nc2ccccc12,0%
10,O=[N+]([O-])c1cccc2c1NC(c1ccccc1F)C1CC=CC21 (centres undefined),45.6%
11,Cc1ccc(COc2ccc3c(c2)oc(=O)c2ccccc23)cc1,8.3%
12,O=C1CCCN1Cc1ncnn1-c1ccccc1,10.5%
13,CCCN1C(=O)C2(c3ccccc31)N1CC3(C)CN2CC(C)(C1)C3=O (centres undefined),-6.2%
14,COc1cccc(NC(=O)C(=O)N/N=C/c2ccc3c(c2)OCO3)c1,6.5%
15,CCOc1ccc(/C=C(/C#N)c2nc(-c3ccc(Br)cc3)cs2)c(OCC)c1,38.9%
16,COc1cc(NC(=O)c2oc3ccc(Cl)cc3c2C)ccc1NC(=O)c1ccco1,-1.9%
17,COc1ccc(CCNC(=O)/C=C/c2ccc([N+](=O)[O-])cc2)cc1,-7.2%
18,Cn1cccc1CN1CCN(C(=O)c2ccc([N+](=O)[O-])cc2)CC1,-4.6%
19,Clc1ccc(-n2ncnc2-c2cccc(Br)c2)cc1,-7.3%
20,O=C(CNc1cccc(Cl)c1)c1ccc([N+](=O)[O-])cc1,11.4%
21,O=C1CC(c2ccccc2)CC(O)=C1C=NCCN1CCNCC1 (centres undefined),-27.5%
22,CCOC(=O)c1c(NC(=O)c2cccc(Cl)c2)sc(C(=O)Nc2ccccc2OCC)c1C,9%

row,Compound,displacement
1,CC1=C(C(=O)OCc2ccccc2)C(c2ccccc2Cl)C2=C(CCCC2=O)N1 (centres undefined),6%
2,CC(C)(C)C(=O)Nc1ccc(NC(=O)C(C)(C)C)c(Cl)c1,-1.7%
3,CC1(C)Cc2c(sc(NC(=S)NC(=O)c3ccccc3)c2C(=O)O)CO1,-11.6%
4,Cc1ccc(C(=O)NCCCn2ccnc2)o1,-2.5%
5,CCOc1c(Br)cc(Br)cc1/C=C1\SC(=S)NC1=O,7.7%
6,CN(C)c1cccc(NC(=O)c2ccc(C(C)(C)C)cc2)c1,-2.3%
7,O=[N+]([O-])c1ccccc1OCC(O)Cn1cnc2ccccc21 (centres undefined),2.8%
8,O=C1NC(=O)C(=Cc2cc(Br)ccc2OCc2ccccc2F)C(=O)N1,11.7%
9,CCOC(=O)C1=C(O)/C(=C/c2ccccc2)SC1=Nc1ccccc1,0.7%
10,O=C(NCCNc1ccccc1[N+](=O)[O-])c1ccccc1F,-3.6%
11,C=C1c2cc(OC)ccc2NC(=O)N1c1ccccc1,0.4%
12,CN(C)c1ccc(/C=C2/C(=O)NC(=O)N(CCCO)C2=O)cc1,-5.2%
13,Cc1cc(I)ccc1S(=O)(=O)N1CCN(c2ccccc2)CC1,14.5%
14,CCCCCc1ccc(/C(C)=N/Nc2cc(-n3cc(C)cn3)ncn2)cc1,-15.5%
15,Cc1cnn(-c2cc(N/N=C/c3ccc(F)cc3)ncn2)c1,-7.7%
16,Cc1sc(NC(=O)C2CC2c2ccccc2)nc1-c1ccccc1 (centres undefined),5.2%
17,Cc1nnc(C)n1/N=C/c1ccccc1Br,11.6%
18,CS(=O)(=O)Nc1nnc(SCC(=O)Nc2cccc([N+](=O)[O-])c2)s1,4.7%
19,CC(C)N=CC1=C(O)CC(c2ccccc2)CC1=O (centres undefined),-4.5%
20,CC(C)(C)OC(=O)COc1cc2oc(=O)cc(-c3ccccc3)c2cc1Cl,10.5%
21,CCCN1C(=O)c2ccccc2NC1c1ccc(Br)cc1 (centres undefined),7.8%
22,Cc1ccc(-c2ccc(C)cc2N)c(N)c1,-3.3%

row,Compound,displacement
1,COc1ccccc1CC(=O)Nc1cccc(F)c1,5.8%
2,CN=C(Nc1ccc(F)cc1)SC1CC(=O)N(c2ccccc2F)C1=O (centres undefined),-0.6%
3,Cc1ccc2oc(-c3ccc(NC(=O)c4cc5ccccc5o4)cc3O)nc2c1,-9.6%
4,NNC(=O)CN1C(c2cccc(Cl)c2)=Nc2ccc(Br)cc2C1c1ccccc1 (centres undefined),11.2%
5,COc1ccc(N2C(=O)NC(=O)/C(=C\c3ccc(OCc4ccc(C(=O)O)cc4)c(OC)c3)C2=O)cc1,-11.7%
6,O=C(Nc1cccc2nsnc12)c1ccc([N+](=O)[O-])cc1,17.9%
7,CCN(CC)CCNC(=O)c1ccc(Cl)c(Cl)c1,-5.2%
8,Cc1cc(OCC(=O)N(C)Cc2ccccc2)ccc1Cl,-1.7%
9,COc1ccc(-c2nc3cc(NC(=O)c4cc5ccccc5o4)ccc3o2)cc1Cl,7.5%
10,COc1ccc(-n2c(=S)[nH]c3sc4c(c3c2=O)CCC(C(C)(C)C)C4)cc1 (centres undefined),-8.9%
11,O=C(Cc1ccccc1[N+](=O)[O-])N1CCN(c2cccc(Cl)c2)CC1,3.9%
12,COc1cc(-c2ccc(NC(=O)c3ccc(C)cc3)c(OC)c2)ccc1NC(=O)c1ccc(C)cc1,8.9%
13,COC(=O)c1ccc2c(c1O)C(=O)c1ccccc1C2=O,39.8%
14,CCOC(=O)C(Cc1ccc(NC(=O)/C(=C/c2ccc(OC(C)=O)cc2)NC(C)=O)cc1)N1C(=O)c2ccccc2C1=O (centres undefined),2.5%
15,COc1cc2c(cc1NC(=O)c1cccc(I)c1)oc1ccccc12,8.3%
16,CCC(=O)Nc1nc2ccccc2n1CCCN(C)C,2.4%
17,Cc1cc(NCCCO)n2c(nc3ccccc32)c1C#N,160%
18,Clc1cccc(Nc2nc3c(s2)CCCC3)c1,3.9%
19,CCOc1ccc(C(=O)COC(=O)c2ccccc2[N+](=O)[O-])cc1,-1.7%
20,O=C(Nc1ccc(Cl)cc1)c1cc(-c2cccs2)nc2ccccc12,15.7%
21,COc1ccc(CN2CCN(Cc3ccco3)CC2)c(OC)c1,-5.2%
